Measurements from the supplement of paper PMC10126150.
Values marked as one replicate rest on one cluster of the flow cell; about a third of the high ones do not repeat.

Tested on: ATP
Assay: switch fluorescence ratio, 500 uM ATP over buffer (Cy3 cluster intensity, sum of 5 cycles each) (fold (ratio)); higher = stronger signal-on switching upon ATP binding; sequences stand for … in TCGTCGGCAGCGTCAGATGTGTATAAGAGACAGTTTTTTTTTTTTTTTTTTTTTTTTT…TC
Settings: aptamer strand: ATP DNA aptamer (quencher-CACCTGGGGGAGTATTGCGGAGGAAGG + anchor), 100 nM annealed; ATP concentration: 500 uM; one replicate
Outline: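 Clusters with intensities outside 100-1000 RFU were excluded. The remaining Cy3-labelled switching-strand clusters on a modified Illumina MiSeq flow-cell had been annealed to 100 nM quencher-labelled ATP aptamer and imaged in selection buffer, then after 15 min with 500 uM ATP at 22 °C, for five cycles separated by NaOH stripping and re-annealing. The fluorescence ratio, averaged per switch-domain sequence, is each cluster's summed target-cycle Cy3 intensity over its summed buffer-cycle Cy3 intensity.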
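Also: ATP exposure 15 min at 22 °C before imaging.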

Row | Sequence | switch fluorescence ratio
1 | CGCAGAGGAA | 1.03
2 | CCCTTATTTG | 0.997
3 | TTAAATTCG | 1.02
4 | CCAACGAAAA | 1
5 | TGTTGCTGG | 1.02
6 | GTCATATCAA | 0.969
7 | AGACTTTGGG | 1.04
8 | TAGGGGGAG | 1
9 | TTGTAAGGGA | 1.01
10 | GGATGTATGA | 1.01
11 | TCACACTTA | 1.09
12 | TCTGGTGAGT | 0.989
13 | CCTAGTAGCT | 1.09
14 | CCGTCCCCG | 1.37
15 | TGATGCAGGA | 1.07
16 | TGAAATACCG | 1.05
17 | AGTGCGACTC | 0.996
18 | GAAACGTCGT | 0.978
19 | TCGATGGTGA | 1.01
20 | CGGTGAGTAC | 0.992
21 | CCTAAGGTGG | 1.06
22 | CTAAGGGACG | 1.05
23 | TACTTTGTGT | 1.02
24 | TGATAGAGGT | 0.989
25 | TCGGACGTTT | 1.02
26 | AGTTGACCGT | 1.03

Row | Sequence | switch fluorescence ratio
27 | CGCGTTGTGT | 0.969
28 | TAACACTTGG | 1.02
29 | GCGCTAGACC | 1.26
30 | AGACGGGACA | 1.1
31 | CCGGCTTATG | 1.01
32 | CTGGGATATT | 1.04
33 | GGGATGGTGC | 1.02
34 | GAGGTCTAGA | 0.991
35 | TGGGAAACCT | 2.29
36 | TCCACCCAAC | 1.15
37 | TACGAGACGC | 1.16
38 | AGTATGAATA | 0.981
39 | GGAGGTGCTT | 1.01
40 | CCTCAGGCGT | 2.1
41 | GGTTCTGCGG | 0.986
42 | GATATGCGTA | 1.05
43 | TTATCAGGAA | 1.01
44 | CGTTGCATAG | 1.12
45 | GCAACGTGCT | 1.02
46 | CGTGTTGTCG | 1.05
47 | ACTAGTTGAT | 1.12
48 | GGGTTTAGCA | 1.01
49 | GGAGTGGTGT | 1.01
50 | GGCCCAAAGG | 0.987
51 | GTTTTTGAAG | 0.981
52 | CCAAGGGTTA | 1.02

Row | Sequence | switch fluorescence ratio
53 | GGTGCCAGGG | 1.04
54 | GAATTCCGAT | 1
55 | TGACCAAGCG | 1.05
56 | GTGGTCGTTC | 1.01
57 | ATTTTCTCGC | 1.08
58 | TCGATTAGTG | 0.972
59 | TTCTAGTGCT | 0.996
60 | CAAATCTCGG | 0.984
61 | TACGTATATC | 2.07
62 | AAGCTTGTC | 1.05
63 | ACAGGAAGCG | 1.07
64 | CGCAGATGTG | 0.992
65 | TCTGTTATAG | 1.11
66 | AAAGAACTGG | 0.988
67 | CGTAAGATGC | 1.06
68 | CGGCGGTGAG | 0.982
69 | TTCGAAACCC | 1.01
70 | TGTTAACGGA | 1.04
71 | CGGTTTCCGA | 0.984
72 | TTGGTTAAGC | 1.01
73 | TCCGCCAACA | 2.44
74 | TGAGACTCAA | 0.985
75 | CTTTTCTTTA | 1.02
76 | TGCACGGTAC | 1.84
77 | AGTAGGATGT | 0.983
78 | GTGACGGGCT | 1.08

Row | Sequence | switch fluorescence ratio
79 | CGTTTTGTAC | 1.08
80 | CGGTTACGGG | 0.985
81 | ATTAAACGTT | 1.01
82 | GAAGCCGGTT | 1
83 | AATTCATATA | 0.993
84 | GGCTTAATCT | 0.96
85 | CAGGTCGCAT | 1.06
86 | GATATAGGTG | 1.09
87 | ATTGATGGA | 1.01
88 | CTTATTACCT | 1.25
89 | TAGGCCCATT | 1.01
90 | CGCGTTTCT | 1.01
91 | TAACTCTCTT | 1.51
92 | TCAAGCACCA | 1.21
93 | AACCTGTTAG | 1.01
94 | CATAAGGGTC | 0.976
95 | TCGCCTAGCT | 0.961
96 | AGAGCATGAG | 1.03
97 | TATGGCGGGC | 1.02
98 | CTAAAGACGG | 1.04
99 | GCCTTCTCAA | 1.32
100 | TGTATATTGC | 0.964
101 | GGGAGACCAC | 1.02
102 | AGCCATTGTA | 1.01
103 | GTTCATCGGC | 1.03
104 | AGCAAAAGCG | 0.985

Row | Sequence | switch fluorescence ratio
105 | TGGCTGACGA | 1.05
106 | CGCCTAGCTG | 0.953
107 | AAGGAGAGAG | 0.959
108 | GATATTATGT | 1.01
109 | CCAAGAATAT | 1.02
110 | GCATCAAAAG | 1.04
111 | GAAGCTATTG | 1.85
112 | ATCTTTAGGG | 0.969
113 | ATCCTCACAC | 1.33
114 | ATAGTTTTAG | 0.998
115 | GATTACCACT | 1.02
116 | CACGGCTGTA | 1.03
117 | AAGGGGGCG | 1.05
118 | TCGGTTGCAC | 1.04
119 | CCAGTCCGTT | 1.03
120 | CGAACAGTGG | 0.992
121 | TGCTGTTGCA | 0.975
122 | CGCACTGGT | 1.05
123 | CCCAATAGGT | 1.12
124 | CCCGTGGGTC | 1
125 | AAGTGTTTTT | 0.996
126 | AATATTACTT | 1.04
127 | CCTAGCGTTT | 1.08
128 | AAAATAAGCG | 0.964
